SMILES strings stand for the structures. Screen size: about 45,000 compounds; about 200 (0.44%) were called active. Another 7% or so got no clear call; they are omitted. Calls follow the shape of the dose curve; as a rule, active = well fitted activation curve with a large enough effect; inconclusive = small, poorly fitted or top-dose-only effect; inactive = no such curve, though single readings can be large or run the other way. Some of the results follow.

The test is described as follows: qHTS of TDP-43 Inhibitors: NCGC Sytravon Library Screen. Also: 0% is about no effect; nearly all actives have a fitted effect of over 55% in size. The note with it: yeast TDP-43 toxicity rescue, BacTiter-Glo growth, 24 h; series mostly up to 46.1 µM; growth rescue (activation): at the top concentration. The essentials:
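TDP-43-expressing yeast, pregrown in raffinose, seeded at OD600 0.02 in galactose medium with compound for 24 hr at 30 deg C. Growth read by BacTiter-Glo luminescence, so rescue of toxicity appears as activation.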
A general note: Quantitative high-throughput screening tests each substance at several concentrations.
`COCCNC(=S)N/N=C/c1c(C)[nH]c2ccccc12`: the “growth rescue (activation)” value is inactive: 18.8%. As for `Cc1csc(NC(=O)CSc2nc3[nH]ncc3c(=O)[nH]2)n1`, the figure is inactive: 1.46%; as for `CN1CCN(C(c2ccc(Cl)cc2)c2cc(Cl)c3cccnc3c2O)CC1` (centres undefined), inactive: -87.9%; as for `Cn1c(CCN2CCN(c3ccccc3)CC2)nc2cc(NC(=O)c3ccco3)ccc21`, inactive: 15.7%. Then `NC(CCc1ccccc1)c1csc(Nc2ccc(C(=O)NCCO)cc2)n1` (centres undefined), with inactive: 16.9%. Then `C/C(N)=C(/C#N)C(=O)COC(=O)CNS(=O)(=O)c1ccc(F)c(F)c1F`, with inactive: 6.24%; and `O=C(O)COc1ccccc1C(Nc1cccnc1)c1cc(Cl)c2cccnc2c1O` (centres undefined), with inactive: 7.25%.

In the case of `Cn1ccnc1SCc1cn2cc(Br)ccc2n1`, the “growth rescue (activation)” value is inactive: -1.51%.

As for `C/C(N)=C(/C#N)C(=O)COC(=O)c1cccc(O)c1`, the “growth rescue (activation)” value is inactive: 5.12%. As to `CC(NC(=O)c1ccccc1F)c1nnc(SCC(=O)Nc2nccs2)n1C` (centres undefined), the “growth rescue (activation)” value was inactive: 11.9%. As for `CC(=O)Nc1ccc(C(=O)N/N=C(\C)CC(=O)Nc2ccc(OCc3ccccc3)cc2)cc1`, the figure is inactive: 19.1%. Then `O=C(Nc1nc2ccccc2c(=O)[nH]1)c1ccccc1SCc1ccccc1`, with inactive: 0.215%. Then `CCOC(=O)NC(N(O)c1cccc(Cl)c1)C(Cl)(Cl)Cl` (centres undefined), with inactive: 23.1%; and `CCOC(=O)N1CCN(Cc2nc3cc(NC(=O)CC(C)C)ccc3n2C(C)C)CC1`, with inactive: 11.9%.

Regarding `O=C(CCc1nc2ccccc2c(=O)[nH]1)Nc1ccc(F)cc1`, the “growth rescue (activation)” value was inactive: -5.34%.

`O=C(NC1CCCC1)C1CCCN(C(=O)Nc2ccccc2)C1` (centres undefined): the “growth rescue (activation)” value is inactive: 5.64%. As for `COc1ccc(C(=O)NCCCNC(=O)c2ccco2)cc1OC`, the figure is inactive: -4.69%. Consider `CCn1cc(C(=O)O)c(=O)c2cnc(N3CCN(C(=S)NC(=O)c4ccc(F)c(F)c4)CC3)nc21`, for which the “growth rescue (activation)” value was inactive: 8.34%. On to `CC(C)(C)C(=O)NC(=S)Nc1ccc(Cl)c(C(=O)O)c1`, for which the “growth rescue (activation)” value is inactive: 6.46%.

In the case of `Cc1nn(Cc2ccc(Cl)cc2)c(C)c1NC(=O)C1CC=CCC1C(=O)O` (centres undefined), the “growth rescue (activation)” value is inactive: -1.53%.

For `CC1CCN(Cc2csc(N)n2)CC1`, the “growth rescue (activation)” value is inactive: 2.79%.

Consider `COc1ccc(/C=N/n2c(C)cc(C)cc2=O)cc1`, for which the “growth rescue (activation)” value is inactive: -3.3%. Then `NNc1ccc2nnc(C(F)(F)C(F)(F)C(F)(F)F)n2n1`, with inactive: 0.412%; and `O=C(NC1CCCC1)C(c1cccnc1)N(CCc1ccccc1)C(=O)c1ccco1` (centres undefined), with inactive: 5.42%. For the compound `CN(c1cccc(NC(=O)CN(c2cccc(Cl)c2)S(=O)(=O)c2ccc(Cl)cc2)c1)S(C)(=O)=O`, the “growth rescue (activation)” value is inactive: 4.75%.

`COc1ccc(C(=O)NC2CCN(C(=O)Nc3ccc(F)cc3)CC2)cc1`: the “growth rescue (activation)” value was inactive: 4.62%. Regarding `Cc1ccc(N2C(=O)C(CN(C)C)C2c2ccccc2)cc1` (centres undefined), the “growth rescue (activation)” value is inactive: -17%. Then `Cc1cc(C)n(CC(=O)c2cccc([N+](=O)[O-])c2)n1`, with inactive: 2.6%.

On to `CCOC(=O)C(NC(=O)CC)(Nc1ccccc1)C(F)(F)F` (centres undefined), for which the “growth rescue (activation)” value was inactive: 17.9%.

Regarding `CCCCNC(=O)c1cccc(NC(=O)C(=O)c2ccccc2NC(C)=O)c1`, the “growth rescue (activation)” value is inactive: 2.9%.

Regarding `O=C(COC(=O)CNC(=O)c1ccc(Br)o1)Nc1ccccc1OC(F)F`, the “growth rescue (activation)” value is inactive: -0.451%. `CSc1ccc(/C=N/NC(=O)CN2CCN(Cc3ccccc3)CC2)cc1`: the “growth rescue (activation)” value is inactive: -3.23%.

For `CCCCCCSc1nc(N)c2c3c(sc2n1)CCCC3C` (centres undefined), the “growth rescue (activation)” value was inactive: 11.3%.

For `COc1ccc([N+](=O)[O-])cc1N(CC(O)CN(CC(C)C)CC(C)C)S(=O)(=O)c1ccc(C)cc1` (centres undefined), the “growth rescue (activation)” value was inactive: -6.92%.

On to `CCC(CC)NC(=O)CO/N=C/c1ccccc1OC(F)F`, for which the “growth rescue (activation)” value is inactive: -4.98%.

Turning to `O=C(Cn1cc(/C=C\[N+](=O)[O-])c2ccccc21)Nc1ccccc1`, the “growth rescue (activation)” value was inactive: 3.03%.

With `COc1ccccc1OCC(=O)Nc1ccccc1C(=O)Nc1cccc(C(=O)O)c1`, the “growth rescue (activation)” value was inactive: 9.3%. As for `O=C(CC1CCC1)NC(c1ccccc1)c1ccccc1`, the figure is inactive: -3.61%; as for `CN(C)c1ccc(-c2cc(NC=O)c3ncc(-c4ccc(F)c(Cl)c4)n3c2)cc1`, inactive: 26.3%. For the compound `CN1CCN(c2ccc(NC(=O)c3ccc4ccccc4c3)cc2)CC1`, the “growth rescue (activation)” value is inactive: -10.6%. For the compound `CN(C(=O)n1cnc2ccccc21)c1ccccc1`, the “growth rescue (activation)” value was inactive: 24.2%. As to `O=C(c1cc(=O)[nH]c2ccccc12)N1CCN(c2ccc([N+](=O)[O-])cc2)CC1`, the “growth rescue (activation)” value was inactive: 30.5%. Take `COc1ccc([N+](=O)[O-])cc1NS(=O)(=O)c1cccc(C(=O)O)c1`: the “growth rescue (activation)” value was inactive: 23.1%. Turning to `O=[N+]([O-])c1cccc(Oc2cnccn2)c1`, the “growth rescue (activation)” value is inactive: 14.1%. For `O=c1c2ccccc2c(C=Nc2cccc(S(=O)(=O)NCc3ccco3)c2)c(O)n1-c1ccc(Cl)cn1`, the “growth rescue (activation)” value was inactive: 5.26%. For `COc1ccccc1-c1c(C)nn2c(C(F)(F)F)cc(-c3ccccc3)nc12`, the “growth rescue (activation)” value is inactive: 17.5%. Then `COc1ccc(CNC(=O)CCN2C(=O)c3ccncc3C2=O)cc1OC`, with inactive: -3.63%; and `CC(C)Nc1ncnc2ccc(Br)cc12`, with inactive: 6.76%. On to `COc1cccc(C(=O)N(Cc2cccc(Cl)c2)Cc2ccco2)c1`, for which the “growth rescue (activation)” value is inactive: 2.1%. As for `O=C(COC(=O)c1ccc(O)cc1)Nc1cccc(S(=O)(=O)NC2=NCCCCC2)c1`, the figure is inactive: 7.19%. As for `c1ccc(-c2nc(NCCCn3ccnc3)c3ccccc3n2)cc1`, the figure is inactive: -9.22%; as for `Cc1ccc(S(=O)(=O)Nc2cc(=O)[nH]c(SCC(=O)Nc3ccccc3C(F)(F)F)n2)cc1`, inactive: 17.4%. As for `Cc1ccc(C(=O)O)cc1-n1c(C)cc(C=O)c1C`, the “growth rescue (activation)” value is inactive: 17.4%. Then `COc1ccc(S(=O)(=O)Nc2ccccc2N2CCOCC2)cc1[N+](=O)[O-]`, with inactive: 9.56%.

These data come from PubChem BioAssay AID1347073 (National Center for Advancing Translational Sciences (NCATS), 2019).
